# Source: the supplement of paper PMC8728848
# The other results are listed elsewhere or left out.
# B1: Gal 3 (Homo sapiens), P17931 (protein)
# chain: MADNFSLHDALSGSGNPNPQGWPGAWGNQPAGAGGYPGASYPGAYPGQAPPGAYPGQAPPGAYHGAPGAYPGAPAPGVYPGPPSGPGAYPSSGQPSAPGAYPATGPYGAPAGPLIVPYNLPLPGGVVPRMLITILGTVKPNANILDFQRGNDVAFHFNPRFNENNRRVIVCNTKLDNNWAREERQSVFPFESGKPFKIQVLVEPDHFKVAVNDAHLLQYNHRVKKLNEISKLGISGDIDLTSASYTMI
# Experiments:
# Test in all cases: glycan array binding signal (z-score within array); higher = stronger binding
# Settings in all cases: glycan notation: IUPAC condensed, linker removed; mutation: G182A
# [1] = target: Gal(b1-3)GlcNAc(b1-2)Man(a1-3)[Gal(b1-3)GlcNAc(b1-2)Man(a1-6)]Man(b1-4)GlcNAc(b1-4)[Fuc(a1-6)]GlcNAc
# Outline: (§1)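 The binding signal is a Z-score computed within each array. Data were drawn from 3228 arrays in the Consortium for Functional Glycomics database, restricted to those with a known protein sequence. Scores were averaged over arrays of the same protein sequence at different concentrations or buffers, and over linkers, and negative values can be taken as non-binding.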
# [2] = target: Gal(b1-3)GlcNAc(b1-3)Gal(b1-3)GlcNAc
# Outline: as §1
# [3] = target: Gal(b1-3)GlcNAc(b1-3)Gal(b1-4)Glc
# Outline: as §1
# [4] = target: Gal(b1-3)GlcNAc(b1-3)Gal(b1-4)GlcNAc
# Outline: as §1
# [5] = target: Gal(b1-3)GlcNAc(b1-3)Gal(b1-4)GlcNAc(b1-6)[Gal(b1-3)GlcNAc(b1-3)]Gal(b1-4)Glc
# Outline: as §1
# [6] = target: Gal(b1-3)GlcNAc(b1-3)Gal(b1-4)[Fuc(a1-3)]GlcNAc(b1-6)[Gal(b1-3)GlcNAc(b1-3)]Gal(b1-4)Glc
# Outline: as §1
# [7] = target: Gal(b1-3)GlcNAc(b1-3)GalNAc
# Outline: as §1
# [8] = target: Gal(b1-3)GlcNAc(b1-6)Gal(b1-4)GlcNAc
# Outline: as §1
# [9] = target: Gal(b1-3)[Fuc(a1-4)]GlcNAc
# Outline: as §1
# [10] = target: Gal(b1-3)[Fuc(a1-4)]GlcNAc(b1-2)Man(a1-3)[Gal(b1-3)[Fuc(a1-4)]GlcNAc(b1-2)Man(a1-6)]Man(b1-4)GlcNAc(b1-4)GlcNAc
# Outline: as §1
# [11] = target: Gal(b1-3)[Fuc(a1-4)]GlcNAc(b1-2)Man(a1-3)[Gal(b1-3)[Fuc(a1-4)]GlcNAc(b1-2)Man(a1-6)]Man(b1-4)GlcNAc(b1-4)[Fuc(a1-6)]GlcNAc
# Outline: as §1
# [12] = target: Gal(b1-3)[Fuc(a1-4)]GlcNAc(b1-3)Gal(b1-3)[Fuc(a1-4)]GlcNAc
# Outline: as §1
# [13] = target: Gal(b1-3)[Fuc(a1-4)]GlcNAc(b1-3)Gal(b1-4)GlcNAc
# Outline: as §1
# [14] = target: Gal(b1-3)[Fuc(a1-4)]GlcNAc(b1-3)Gal(b1-4)[Fuc(a1-3)]GlcNAc
# Outline: as §1
# [15] = target: Gal(b1-3)[GlcNAc(b1-6)]GalNAc
# Outline: as §1
# [16] = target: Gal(b1-3)[Neu5Ac(a2-6)]GalNAc
# Outline: as §1
# [17] = target: Gal(b1-3)[Neu5Ac(a2-6)]GlcNAc(b1-6)Gal(b1-4)Glc
# Outline: as §1
# [18] = target: Gal(b1-3)[Neu5Ac(b2-6)]GalNAc
# Outline: as §1
# [19] = target: Gal(b1-4)GalNAc(a1-3)[Fuc(a1-2)]Gal(b1-4)GlcNAc
# Outline: as §1
# [20] = target: Gal(b1-4)GalNAc(b1-3)[Fuc(a1-2)]Gal(b1-4)GlcNAc
# Outline: as §1
# Gal(b1-4)Glc = target: Gal(b1-4)Glc
# Outline: as §1
# Gal(b1-4)Glc6S = target: Gal(b1-4)Glc6S
# Outline: as §1
# Gal(b1-4)GlcNAc = target: Gal(b1-4)GlcNAc
# Outline: as §1
# [21] = target: Gal(b1-4)GlcNAc(a1-6)Gal(b1-4)GlcNAc
# Outline: as §1
# [22] = target: Gal(b1-4)GlcNAc(b1-2)Man(a1-3)Man(b1-4)GlcNAc(b1-4)GlcNAc
# Outline: as §1
# [23] = target: Gal(b1-4)GlcNAc(b1-2)Man(a1-3)[Gal(b1-4)GlcNAc(b1-2)Man(a1-6)]Man(b1-4)GlcNAc(b1-4)GlcNAc
# Outline: as §1
# [24] = target: Gal(b1-4)GlcNAc(b1-2)Man(a1-3)[Gal(b1-4)GlcNAc(b1-2)Man(a1-6)]Man(b1-4)GlcNAc(b1-4)[Fuc(a1-6)]GlcNAc
# Outline: as §1
# [25] = target: Gal(b1-4)GlcNAc(b1-2)Man(a1-3)[GlcNAc(b1-2)Man(a1-6)]Man(b1-4)GlcNAc(b1-4)GlcNAc
# Outline: as §1
# [26] = target: Gal(b1-4)GlcNAc(b1-2)Man(a1-3)[Man(a1-6)]Man(b1-4)GlcNAc(b1-4)GlcNAc
# Outline: as §1
# [27] = target: Gal(b1-4)GlcNAc(b1-2)Man(a1-6)Man(b1-4)GlcNAc(b1-4)GlcNAc
# Outline: as §1
# [28] = target: Gal(b1-4)GlcNAc(b1-2)Man(a1-6)[GlcNAc(b1-2)Man(a1-3)]Man(b1-4)GlcNAc(b1-4)GlcNAc
# Outline: as §1
# [29] = target: Gal(b1-4)GlcNAc(b1-2)Man(a1-6)[Man(a1-3)]Man(b1-4)GlcNAc(b1-4)GlcNAc
# Outline: as §1
# [30] = target: Gal(b1-4)GlcNAc(b1-2)[Gal(b1-4)GlcNAc(b1-4)]Man(a1-3)[Gal(b1-4)GlcNAc(b1-2)Man(a1-6)]Man(b1-4)GlcNAc(b1-4)GlcNAc
# Outline: as §1
# [31] = target: Gal(b1-4)GlcNAc(b1-2)[Gal(b1-4)GlcNAc(b1-4)]Man(a1-3)[Gal(b1-4)GlcNAc(b1-2)[Gal(b1-4)GlcNAc(b1-6)]Man(a1-6)]Man(b1-4)GlcNAc(b1-4)GlcNAc
# Outline: as §1
# [32] = target: Gal(b1-4)GlcNAc(b1-3)Gal(b1-3)GlcNAc
# Outline: as §1
# [33] = target: Gal(b1-4)GlcNAc(b1-3)Gal(b1-4)Glc
# Outline: as §1
# [34] = target: Gal(b1-4)GlcNAc(b1-3)Gal(b1-4)GlcNAc
# Outline: as §1
# [35] = target: Gal(b1-4)GlcNAc(b1-3)Gal(b1-4)GlcNAc(b1-3)Gal(b1-4)GlcNAc
# Outline: as §1
binder,measurement,setting,value
B1,glycan array binding signal (z-score),[1],-0.181
same,glycan array binding signal (z-score),[2],-0.137
same,glycan array binding signal (z-score),[3],-0.158
same,glycan array binding signal (z-score),[4],-0.171
same,glycan array binding signal (z-score),[5],-0.118
same,glycan array binding signal (z-score),[6],-0.189
same,glycan array binding signal (z-score),[7],-0.17
same,glycan array binding signal (z-score),[8],-0.179
same,glycan array binding signal (z-score),[9],-0.189
same,glycan array binding signal (z-score),[10],-0.175
same,glycan array binding signal (z-score),[11],-0.176
same,glycan array binding signal (z-score),[12],-0.189
same,glycan array binding signal (z-score),[13],-0.195
same,glycan array binding signal (z-score),[14],-0.186
same,glycan array binding signal (z-score),[15],-0.179
same,glycan array binding signal (z-score),[16],-0.172
same,glycan array binding signal (z-score),[17],-0.164
same,glycan array binding signal (z-score),[18],-0.187
same,glycan array binding signal (z-score),[19],0.134
same,glycan array binding signal (z-score),[20],-0.166
same,glycan array binding signal (z-score),Gal(b1-4)Glc,-0.187
same,glycan array binding signal (z-score),Gal(b1-4)Glc6S,-0.183
same,glycan array binding signal (z-score),Gal(b1-4)GlcNAc,-0.185
same,glycan array binding signal (z-score),[21],-0.16
same,glycan array binding signal (z-score),[22],-0.191
same,glycan array binding signal (z-score),[23],-0.172
same,glycan array binding signal (z-score),[24],-0.197
same,glycan array binding signal (z-score),[25],-0.154
same,glycan array binding signal (z-score),[26],-0.187
same,glycan array binding signal (z-score),[27],-0.141
same,glycan array binding signal (z-score),[28],-0.19
same,glycan array binding signal (z-score),[29],-0.197
same,glycan array binding signal (z-score),[30],-0.189
same,glycan array binding signal (z-score),[31],-0.136
same,glycan array binding signal (z-score),[32],0.746
same,glycan array binding signal (z-score),[33],-0.074
same,glycan array binding signal (z-score),[34],2.97
same,glycan array binding signal (z-score),[35],7.13
